# In publication PMC5836133:
# The list shows a part of the results. At the low end of the ranking, values are background and their order means little.
# System: T1, GST-NbGlk1(82-244)
# T1 sequence: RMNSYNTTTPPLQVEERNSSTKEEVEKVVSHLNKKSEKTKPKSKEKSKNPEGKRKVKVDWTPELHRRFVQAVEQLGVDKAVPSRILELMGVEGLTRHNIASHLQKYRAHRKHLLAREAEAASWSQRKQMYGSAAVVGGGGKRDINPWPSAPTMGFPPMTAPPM
# Experiment: protein-binding microarray;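 also: rank-based score ranging −0.5 to +0.5 with E above 0.45 taken as significant binding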
# Settings: NbGlk1 is a Golden2-like transcription factor of Nicotiana benthamiana; high values mean tight binding; most listed sequences are background and not binding sites; double strand, one strand shown
row,Sequence,binding signal [E-score]
1,AGTTTGAA,-0.0387
2,AAACAGCC,-0.201
3,AGCATTAG,-0.111
4,ATTGCCGG,0.005
5,ATATTGCA,0.225
6,ACAGATTG,0.359
7,ATCTGCCC,0.218
8,CAATTAGG,0.0775
9,ATCTACCA,0.253
10,AGGGGCAT,-0.158
11,ACCCGTTA,-0.144
12,ATGGACGA,-0.109
13,ATGCATGC,-0.224
14,AGCTGTCG,-0.0742
15,AAGCCAGT,-0.0326
16,AAGCAATT,0.108
17,AGATGGAG,-0.117
18,AGTCCACT,-0.179
19,CACATCTG,-0.0699
20,ATGAGAGG,-0.189
21,AACGGCCC,-0.253
22,AGTCTTAA,-0.161
23,ACAAACAT,0.129
24,AGGCGGAT,0.206
25,AGGCGGCG,-0.219

row,Sequence,binding signal [E-score]
1,AAGTCTCT,-0.189
2,CAGCCGGG,-0.178
3,AAGGTAAT,0.217
4,AGTTGGCA,-0.136
5,ATTTTCTA,0.373
6,AGGGAAGG,-0.322
7,ACATATTC,0.133
8,AGCGAGTA,0.0419
9,CAGAGAGC,-0.273
10,AGCTCACC,-0.199
11,AAACTTCT,-0.00267
12,AGGGATGC,-0.218
13,AAAGAGAC,-0.241
14,AGTCTGCG,-0.226
15,ACGGAGTA,0.0215
16,ATGGTGCG,-0.0961
17,ATACTAAG,-0.00119
18,CACGCTGA,-0.0321
19,ACCTTAAT,0.0597
20,AACGGATT,0.392
21,AAGCTGGC,-0.269
22,CAAGCTTG,-0.212
23,AGAACAAT,0.205
24,AACATCTA,0.0998
25,AGAGGAAT,0.21

row,Sequence,binding signal [E-score]
1,AGGGAAGA,-0.131
2,AGGTATCG,0.0281
3,AATGGCCT,-0.114
4,CACCACAA,0.112
5,AGACTCTG,-0.105
6,AGAGACTA,-0.12
7,AATAAGTG,0.0355
8,ACTCGATA,0.093
9,AATTGCTA,0.194
10,AAGTAACT,-0.113
11,CAATATGG,0.142
12,ATTACTGA,0.149
13,CACCCCCA,-0.186
14,AAATATAA,0.208
15,AAAGGAGT,0.00548
16,AAGAACGC,-0.137
17,AATGCTGT,0.00548
18,ATGGACGG,-0.102
19,CAACCCAA,-0.00184
20,ACACACCC,-0.161
21,AGAAAATG,0.185
22,ACCTGGTA,-0.214
23,ACACCTCG,-0.0851
24,ATCCGCGA,0.316
25,AGCTTACC,-0.129

row,Sequence,binding signal [E-score]
1,AAGGTAGC,-0.233
2,AATCTCGG,0.429
3,AAAAGCCC,-0.223
4,ATGCATTG,-0.016
5,AATTGCAA,0.132
6,ATTACAAA,0.302
7,CAATCCTA,0.288
8,ACCTGCAC,-0.121
9,ACTCAGAG,-0.11
10,ACCCTCGT,-0.0628
11,ACTGCGGA,-0.0687
12,CAATTGGG,0.00496
13,AGACGTAA,0.0108
14,AACCAATA,-0.0751
15,CAAGGTGA,-0.196
16,AATGACTA,-0.017
17,AGGAAGAT,0.276
18,ATAAATTC,0.214
19,AGACGTGG,-0.236
20,AACTAAGG,-0.0967
21,CACTATAG,-0.0506
22,AGTATAGC,-0.175
23,AATGGCAG,0.00216
24,AGGAAATG,-0.0795
25,ATACCGTC,-0.0102

row,Sequence,binding signal [E-score]
1,AGAGAACG,-0.212
2,ATCGCTGA,0.124
3,AACCCTCT,-0.229
4,AGTTGAGG,-0.181
5,ACCAATGC,-0.192
6,AACGAGAG,-0.00998
7,CAACCGTC,-0.0671
8,ACATAATG,-0.0391
9,ACGACACT,-0.0924
10,AGTGTCCG,-0.168
11,CAAATTAC,0.275
12,ACTACGCC,-0.257
13,AGTGTTGC,0.0344
14,AGTGTAGC,-0.0709
15,ACTCCGAG,-0.115
16,AATTGGCG,0.111
17,CAGACTTC,-0.216
18,ATTGCTGC,-0.0186
19,AACAGTGG,0.00865
20,AGGGACCC,-0.418
21,ATTGTATA,0.192
22,AGACGTGA,-0.0897
23,AATCTTCT,0.41
24,AAGCAACC,-0.266
25,AATCGCAT,0.274

row,Sequence,binding signal [E-score]
1,ACTGTCAG,-0.148
2,AACCTCCT,-0.212
3,AATGACGA,-0.0116
4,ACAACGGA,0.0678
5,AGAAGATA,0.26
6,AGCCCTTA,-0.299
7,AACAGAGT,-0.0944
8,ACAACCAT,-0.161
9,ATGCCCTA,-0.162
10,ATGAAGCA,-0.092
11,ATTCAAGC,-0.0708
12,ATATAAGG,0.0598
13,ACACCCCT,-0.207
14,AATGAAAT,0.236
15,ACGGCGCC,-0.205
16,AGCCAACG,-0.362
17,ATCTGGCC,0.195
18,ACCACCCT,-0.151
19,AGCGGTTC,-0.116
20,ACCATAAA,0.166
21,ACGATGAG,-0.126
22,CACTACTG,-0.065
23,CAGACGGC,-0.256
24,ATTAAATG,0.0475
25,ATACGGAG,0.0606

row,Sequence,binding signal [E-score]
1,ATCTATAC,0.231
2,ACTGGGGG,-0.132
3,ACCAAACG,-0.109
4,AGTGCATG,-0.101
5,AGCTTCTA,-0.0236
6,ACAACAGC,-0.0918
7,AAATTGAG,0.045
8,ATATAGAT,0.352
9,AAGTGTTC,-0.0902
10,ACTTACTG,-0.0165
11,CAGCATGC,-0.209
12,AGAGCATA,0.0141
13,ATGCGGCA,-0.0795
14,ATTCCTCA,0.286
15,CAGACACC,-0.112
16,AATTAGGA,0.0996
17,ATGTCGGG,-0.168
18,AGACTGGA,0.0227
19,CAACTACA,-0.11
20,ACAACTCC,-0.147
21,AATCAGAA,0.333
22,AAACTGGG,-0.114
23,CACTCGGG,-0.0887
24,ACCTAGAT,0.291
25,ATCACAAT,0.24

row,Sequence,binding signal [E-score]
1,ATCTACAT,0.296
2,ACGTTTTG,-0.00795
3,ATCAGCGC,0.0548
4,AAGATTGC,0.443
5,ACTATTAG,0.00525
6,AAAGATAC,0.21
7,ATCGTAAA,0.239
8,ATGAAAAC,0.137
9,AGATAGCT,0.0834
10,AAACTAAA,0.144
11,ACTAGCAT,-0.043
12,AGACTGCC,-0.333
13,AGTATACA,0.135
14,ATGCGCAT,0.161
15,AGGAACTA,0.0173
16,AGAATTGA,-0.0591
17,ACGACGCT,-0.0998
18,AAGGTCCT,-0.304
19,AACACGGC,-0.177
20,ATATTTCG,0.347
21,ACTTTTCC,-0.15
22,AATCAGCG,0.312
23,ACTATAGA,-0.0521
24,AGCGAGAG,-0.0344
25,AGCTTGAA,-0.115

row,Sequence,binding signal [E-score]
1,ATAGTCTC,-0.0881
2,AGTACCTC,-0.157
3,AGTAGGAC,-0.018
4,AGCTTGCA,-0.143
5,ACTTAGTG,-0.0215
6,ATTATGGA,0.277
7,AGCCGGCT,-0.307
8,ATCAGGGA,0.0964
9,ACACAGAC,-0.0103
10,AGGCGTCG,-0.218
11,AAGGAAAT,0.348
12,ATGCCATA,-0.038
13,AAAGTATG,-0.0621
14,AAGTTATA,0.0726
15,ATTCGCCC,0.275
16,AATTGGAC,0.0307
17,ACCGAGAC,-0.137
18,ATCATACC,0.0944
19,AAGGAGAG,-0.206
